The supplement of paper PMC12578646, “Prodrug florfenicol amine is activated by intrinsic resistance to target Mycobacterium abscessus” (Nature Microbiology, 2025)

What was measured:
Experiment in all cases: growth relative to untreated wells; higher = more growth (less inhibition)
[1] = tested on: Mycobacterium abscessus ATCC 19977 ΔwhiB7
Protocol: (§1)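 384-well two-fold dose series, two replicates; 5 days at 37 °C, then 24 h with resazurin; fluorescence scaled to growth and killed controls.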

[2] = tested on: Mycobacterium abscessus ATCC 19977 Δeis2
Protocol: as §1

[3] = tested on: Mycobacterium abscessus ATCC 19977 Eis2 Y284*
Protocol: as §1

[4] = tested on: Mycobacterium abscessus ATCC 19977 Eis2 Y227D
Protocol: as §1

[5] = tested on: Mycobacterium abscessus ATCC 19977 Eis2 T258R
Protocol: as §1

[6] = tested on: Mycobacterium abscessus ATCC 19977 WhiB7 F24fs
Protocol: as §1

[7] = tested on: Mycobacterium abscessus ATCC 19977 Eis2 E120fs
Protocol: as §1

[8] = tested on: Mycobacterium abscessus ATCC 19977 Eis2 Y255*
Protocol: as §1

[9] = tested on: Mycobacterium abscessus ATCC 19977 WhiB7 A51T
Protocol: as §1

[10] = tested on: Mycobacterium abscessus ATCC 19977 WhiB7 L37P
Protocol: as §1

[11] = tested on: Mycobacterium abscessus ATCC 19977 WhiB7 T70fs
Protocol: as §1

[12] = tested on: Mycobacterium abscessus ATCC 19977
Protocol: as §1

CN[C@@H]1[C@H](O)[C@H](NC)[C@H]2O[C@@]3(O)C(=O)C[C@@H](C)O[C@H]3O[C@@H]2[C@H]1O [spectinomycin]
Conditions	growth [%]
[1], 0.5 µg/mL	105
[1], 1 µg/mL	117
[1], 2 µg/mL	112
[1], 4 µg/mL	120
[1], 8 µg/mL	149
[1], 16 µg/mL	152
[1], 32 µg/mL	27.5
[1], 64 µg/mL	-0.952
[1], 128 µg/mL	-1.91
[1], 256 µg/mL	-2.26
[1], 512 µg/mL	-2.03
[1], 1024 µg/mL	-0.422
[2], 0.5 µg/mL	98.8
[2], 1 µg/mL	105.5
[2], 2 µg/mL	105
[2], 4 µg/mL	112
[2], 8 µg/mL	108.7
[2], 16 µg/mL	115
[2], 32 µg/mL	125
[2], 64 µg/mL	122
[2], 128 µg/mL	123
[2], 256 µg/mL	49.4
[2], 512 µg/mL	11
[2], 1024 µg/mL	1.72
[3], 0.5 µg/mL	85.9
[3], 1 µg/mL	108
[3], 2 µg/mL	100
[3], 4 µg/mL	113
[3], 8 µg/mL	110
[3], 16 µg/mL	123
[3], 32 µg/mL	125
[3], 64 µg/mL	129
[3], 128 µg/mL	97.5
[3], 256 µg/mL	47.3
[3], 512 µg/mL	9.89
[3], 1024 µg/mL	3.15
[4], 0.5 µg/mL	97.1
[4], 1 µg/mL	105.3
[4], 2 µg/mL	100
[4], 4 µg/mL	116
[4], 8 µg/mL	112
[4], 16 µg/mL	123.8
[4], 32 µg/mL	132
[4], 64 µg/mL	131
[4], 128 µg/mL	116
[4], 256 µg/mL	30.9
[4], 512 µg/mL	22.14
[4], 1024 µg/mL	6.09
[5], 0.5 µg/mL	89.8
[5], 1 µg/mL	107
[5], 2 µg/mL	95.4
[5], 4 µg/mL	113
[5], 8 µg/mL	92.6
[5], 16 µg/mL	119
[5], 32 µg/mL	119
[5], 64 µg/mL	115
[5], 128 µg/mL	98.7
[5], 256 µg/mL	26.1
[5], 512 µg/mL	13.7
[5], 1024 µg/mL	1.96
[6], 0.5 µg/mL	100
[6], 1 µg/mL	116
[6], 2 µg/mL	111
[6], 4 µg/mL	126
[6], 8 µg/mL	129
[6], 16 µg/mL	135
[6], 32 µg/mL	33.2
[6], 64 µg/mL	1.9
[6], 128 µg/mL	0.608
[6], 256 µg/mL	-0.883
[6], 512 µg/mL	-0.43
[6], 1024 µg/mL	1.17
[7], 0.5 µg/mL	95.9
[7], 1 µg/mL	122
[7], 2 µg/mL	104
[7], 4 µg/mL	118
[7], 8 µg/mL	119
[7], 16 µg/mL	129.3
[7], 32 µg/mL	132
[7], 64 µg/mL	138
[7], 128 µg/mL	133
[7], 256 µg/mL	57.8
[7], 512 µg/mL	24.1
[7], 1024 µg/mL	5.01
[8], 0.5 µg/mL	91.7
[8], 1 µg/mL	108
[8], 2 µg/mL	101
[8], 4 µg/mL	125
[8], 8 µg/mL	106.8
[8], 16 µg/mL	127
[8], 32 µg/mL	128
[8], 64 µg/mL	137.2
[8], 128 µg/mL	117
[8], 256 µg/mL	36.3
[8], 512 µg/mL	18.3
[8], 1024 µg/mL	2.54
[9], 0.5 µg/mL	94.9
[9], 1 µg/mL	117
[9], 2 µg/mL	107
[9], 4 µg/mL	130
[9], 8 µg/mL	138
[9], 16 µg/mL	143
[9], 32 µg/mL	62.6
[9], 64 µg/mL	3.53
[9], 128 µg/mL	0.0667
[9], 256 µg/mL	-0.071
[9], 512 µg/mL	0.197
[9], 1024 µg/mL	1.77
[10], 0.5 µg/mL	102
[10], 1 µg/mL	117
[10], 2 µg/mL	107
[10], 4 µg/mL	128
[10], 8 µg/mL	134
[10], 16 µg/mL	138
[10], 32 µg/mL	32.4
[10], 64 µg/mL	1.99
[10], 128 µg/mL	-0.0571
[10], 256 µg/mL	-0.0832
[10], 512 µg/mL	-0.0909
[10], 1024 µg/mL	1.07
[11], 0.5 µg/mL	93
[11], 1 µg/mL	110.3
[11], 2 µg/mL	102
[11], 4 µg/mL	123
[11], 8 µg/mL	126
[11], 16 µg/mL	129
[11], 32 µg/mL	40.2
[11], 64 µg/mL	-1.51
[11], 128 µg/mL	-1.65
[11], 256 µg/mL	-2.46
[11], 512 µg/mL	-2.77
[11], 1024 µg/mL	-0.996
[12], 0.5 µg/mL	97.5
[12], 1 µg/mL	108
[12], 2 µg/mL	106
[12], 4 µg/mL	115.2
[12], 8 µg/mL	112
[12], 16 µg/mL	124
[12], 32 µg/mL	132
[12], 64 µg/mL	126
[12], 128 µg/mL	117
[12], 256 µg/mL	32
[12], 512 µg/mL	24.6
[12], 1024 µg/mL	3.03

M. abscessus ATCC 19977 and its deletion, point and complemented mutants after 5 days of drug at 37 °C plus 24 h of resazurin. Growth in % of untreated wells at the dose given (lower = more inhibition); checkerboards give % inhibition (higher = more inhibition); IC50 from the fitted curve (lower = more potent). No active / inactive call. IC50 values come from the same 384-well curves. Growth is not capped and can exceed 100%. The direction of the checkerboard scale is read from the raw signals. Capreomycin is a mixture.
